According to the supplement of paper PMC4166925:
± gives the standard deviation of the averaged measurements. Over roughly 33,000 sequences, “E-score (dimensionless, -0.5 to 0.5)” has its median near -0.049; the highest 2% begin near 0.37. This is one part of the list.

System: T1, PmTbr T-box DNA-binding domain (GST fusion)
T1 sequence: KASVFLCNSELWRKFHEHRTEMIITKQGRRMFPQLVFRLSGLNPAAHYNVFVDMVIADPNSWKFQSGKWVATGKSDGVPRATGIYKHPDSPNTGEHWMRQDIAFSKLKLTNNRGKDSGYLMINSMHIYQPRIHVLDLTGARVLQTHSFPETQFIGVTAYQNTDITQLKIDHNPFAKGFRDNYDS
Assay: PBM E-score of 8-mer (E-score (dimensionless, -0.5 to 0.5)); Tbr is Tbrain of the sea star Patiria miniata (Pm) or the sea urchin Strongylocentrotus purpuratus (Sp); higher = stronger binding preference; most listed sequences are background and not binding sites
Details: the construct has about 5 more residues each side
Procedure, shortened: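 GST-fused Tbr T-box DNA-binding domains (the whole T-box plus about five flanking residues) were expressed in BL21 E. coli at 20 °C and purified by glutathione affinity chromatography. Universal Agilent oligonucleotide arrays were made double-stranded by primer extension, incubated with 200 nM protein in PBS (pH 7.5), then scanned and quantified. Every ungapped 8-mer was scored from probe intensities. The Universal PBM Analysis Suite gave each word an enrichment E-score, averaged over duplicate arrays.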

Sequence	PBM E-score of 8-mer
GAGTATCA	-0.0776 ± 0.091
TCGCATCA	0.149 ± 0.042
ATGTGAAA	0.287 ± 0.019
ACCACCAA	0.0394 ± 0.048
ACAATTCT	0.0705 ± 0.023
CTCAGTGA	-0.0507 ± 0.041
AAGTGCTC	0.0187 ± 0.018
GCTGTAGA	-0.25 ± 0.0054
ATCCGCAT	-0.237 ± 0.017
CTAGAACC	-0.14 ± 0.074
AAACTTGT	0.163 ± 0.073
CGATCTCA	0.0841 ± 0.016
GGGCCGAA	-0.122 ± 0.037
CCCCGAGG	-0.148 ± 0.056
CGGTTAGA	-0.182 ± 0.026
ACATTGCA	0.0709 ± 0.034
ACGTTCTG	-0.0735 ± 0.011
AACGCCCG	0.0305 ± 0.028
CATGAAGC	-0.064 ± 0.045
GATGGTCC	-0.346 ± 0.014
ACGCAATA	-0.0241 ± 0.054
TATGTTGA	-0.0692 ± 0.1
CCAGGACA	0.0761 ± 0.0049
GACGTCCA	-0.0383 ± 0.0085
AGTCAAGG	-0.0922 ± 0.0097

Sequence	PBM E-score of 8-mer
ACACTTAC	0.412 ± 0.0079
GCTCGAAC	-0.198 ± 0.0032
GCGAGGAA	0.21 ± 0.0086
GGCTCCAC	-0.15 ± 0.038
AACAGAGG	-0.178 ± 0.015
ACTCACAC	0.4612 ± 0.00083
GTCCAAAC	-0.0846 ± 0.017
AAATAGAC	-0.1746 ± 0.0012
GTACCATA	-0.246 ± 0.043
AGAGGTTG	0.0353 ± 0.068
CGTACGTC	-0.111 ± 0.049
ATAAAGCG	0.139 ± 0.031
AGTTCGCG	0.221 ± 0.038
CCGTCCGC	0.00107 ± 0.02
GATGAGAA	-0.00456 ± 0.011
AAGCAACA	0.079 ± 0.017
CAGGGTGC	0.271 ± 0.036
GGCCCCGA	-0.341 ± 0.029
GAACCAGA	-0.139 ± 0.041
AGATAGAG	-0.00491 ± 0.06
CAAGTTCC	0.0103 ± 0.1
ACTGTAAC	0.123 ± 0.019
ACGCATCA	0.083 ± 0.099
CAGTTGAA	0.0143 ± 0.069
AAGTAGCG	0.149 ± 0.063

Sequence	PBM E-score of 8-mer
CGGTCAAG	-0.263 ± 0.039
ATGGCACC	0.387 ± 0.011
AGTTTTAC	-0.00577 ± 0.17
CTTGACCA	-0.0573 ± 0.026
CGCGTTGC	0.211 ± 0.017
CGGGTGCC	0.247 ± 0.024
GGGGGTCA	-0.0111 ± 0.17
TGTTTGAA	0.112 ± 0.0038
AGAATTCG	0.0158 ± 0.13
ACGTGGTG	0.212 ± 0.016
CGGCTAAA	0.0452 ± 0.049
GACGCGTC	0.324 ± 0.023
AACATGCG	0.175 ± 0.032
CCTAACGA	-0.0186 ± 0.072
AAAAAGAT	-0.206 ± 0.07
AGGAAGTA	-0.125 ± 0.066
CTCCCCGC	-0.0446 ± 0.064
AGGATGCG	0.047 ± 0.057
GTTCCGTA	-0.202 ± 0.014
ACTAGAAG	-0.0175 ± 0.013
GTATACCA	0.0332 ± 0.012
AAACACTA	0.0648 ± 0.087
AAAAGGGA	-0.282 ± 0.053
CGCGTTGA	0.148 ± 0.048
CCGAAGAC	-0.195 ± 0.034

Sequence	PBM E-score of 8-mer
ATCCAGGC	-0.181 ± 0.021
CTCTAGCC	-0.0369 ± 0.02
GGAAGCCC	-0.317 ± 0.047
CTCGCCGC	0.196 ± 0.014
CGTAGAGA	-0.22 ± 0.0053
AACCCGAG	-0.127 ± 0.026
GGTCCCTA	-0.162 ± 0.021
CGATATAC	-0.104 ± 0.054
GCCCTCAA	-0.147 ± 0.065
CTGTCGTA	0.0388 ± 0.044
ACCGGAGA	0.0556 ± 0.013
GTTTTACA	0.0499 ± 0.15
CTCTATTC	-0.103 ± 0.052
GTAATGAC	0.0149 ± 0.0045
ATCCACGC	0.052 ± 0.054
ACGTGCTA	0.417 ± 0.019
CACTGCGA	0.056 ± 0.026
CTTCTCAA	0.101 ± 0.033
AGGAGACA	0.0199 ± 0.06
CTGGGTTC	-0.282 ± 0.051
GTAAGAGA	-0.248 ± 0.022
ACCTTTAT	0.0337 ± 0.024
GCGTACCC	-0.0721 ± 0.014
CAATTCGC	0.223 ± 0.0062
GGCGGAGA	-0.163 ± 0.026

Sequence	PBM E-score of 8-mer
GCATCGGC	-0.309 ± 0.053
GTAGGTTA	-0.189 ± 0.025
GTCTAAGA	-0.0702 ± 0.07
CCCTGTCA	0.187 ± 0.022
AATGCAAT	-0.165 ± 0.014
GGTTGTTA	0.134 ± 0.02
CGAACCAG	-0.0484 ± 0.098
TCTACCAA	-0.108 ± 0.019
AGGGCAGA	-0.12 ± 0.043
ACCCTGGA	-0.082 ± 0.095
ATCGAGCG	-0.16 ± 0.02
ACAGACCT	-0.0748 ± 0.12
GATCTACA	-0.139 ± 0.0057
AAAATTCA	-0.00773 ± 0.07
CAAAGGTC	-0.13 ± 0.039
ACGGTTGA	0.0857 ± 0.0053
AGTACCCG	-0.0417 ± 0.018
AATCGGAT	-0.0836 ± 0.085
CCAGTCGA	-0.165 ± 0.021
AGTCTTCG	-0.00126 ± 0.024
GGGAACGA	-0.00795 ± 0.025
CAGTGGGA	-0.212 ± 0.077
CATCAAAC	-0.0906 ± 0.034
GGGTTGGA	0.07495 ± 0.00042
CTTACGGA	-0.148 ± 0.083

Sequence	PBM E-score of 8-mer
CGGAGAAG	0.0198 ± 0.018
CCCACAAA	-0.0436 ± 0.055
AAATAGTG	0.105 ± 0.017
AGTAAGAT	-0.0969 ± 0.02
AACTCTCA	0.11 ± 0.052
CTCCTGGC	-0.0793 ± 0.032
GACTGGAA	-0.114 ± 0.012
AGGCGCCC	-0.0427 ± 0.0063
CGACAGTA	0.103 ± 0.019
ATATTGCC	-0.106 ± 0.095
AACACACC	0.3 ± 0.019
AGTACATC	-0.228 ± 0.039
ACAAAGTA	-0.0804 ± 0.029
ACGCCCAA	0.0023 ± 0.037
CGGCTGGA	-0.115 ± 0.022
AGTAATAC	-0.265 ± 0.022
AGTGAATA	0.05 ± 0.073
GGCGCAAC	0.114 ± 0.099
AAAGTAAC	0.2154 ± 0.00077
ACCTCTAG	0.0925 ± 0.0099
GCTGTCAA	0.323 ± 0.014
AAGGAAGG	-0.149 ± 0.022
TCAGAACA	-0.164 ± 0.058
CACTAGTC	0.152 ± 0.015
GTGCACTA	0.163 ± 0.0059

Sequence	PBM E-score of 8-mer
ACCAGTGC	0.0674 ± 0.07
AAGTGAGT	0.0914 ± 0.0086
CGGTAAGA	-0.2889 ± 0.0013
CCCACGGG	-0.311 ± 0.035
AACTGTGC	0.0163 ± 0.0056
CAAGCTCC	-0.181 ± 0.059
CATTGCGC	-0.0924 ± 0.053
AATTCCCT	-0.123 ± 0.0042
GGCACCAC	0.225 ± 0.022
TAAGTATA	-0.177 ± 0.089
GCGAGTAA	0.106 ± 0.01
ATAGACCA	-0.233 ± 0.0056
TCCCCAGA	-0.207 ± 0.12
ATCACCGA	0.145 ± 0.011
AATATATG	-0.0917 ± 0.095
ACACGGGC	-0.108 ± 0.0085
AGTACTCC	-0.28 ± 0.033
CGTCAGCA	0.184 ± 0.024
GATCTAAC	-0.106 ± 0.013
AATTTTCT	-0.253 ± 0.071
AACAGTCT	-0.164 ± 0.086
ATTTGAAC	-0.162 ± 0.051
